# Some of the results follow.
# Key:
# Assay in all cases: glycan array binding signal (z-score within array); higher = stronger binding
# Settings in all cases: glycan notation: IUPAC condensed, linker removed
# Glc(b1-6)Glc = molecular target: Glc(b1-6)Glc
# Procedure, shortened: (§1)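 The binding signal is a Z-score computed within each array and averaged over linkers. Arrays of the same protein sequence at different concentrations or buffers were also averaged together. Data originate from 3228 arrays in the Consortium for Functional Glycomics database, kept only where the protein sequence was available.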
# GlcA(b1-3)Gal = molecular target: GlcA(b1-3)Gal
# Procedure, shortened: as §1
# GlcA(b1-3)GlcNAc = molecular target: GlcA(b1-3)GlcNAc
# Procedure, shortened: as §1
# GlcA(b1-6)Gal = molecular target: GlcA(b1-6)Gal
# Procedure, shortened: as §1
# [1] = molecular target: GlcA3S(b1-3)Gal(b1-4)GlcNAc(b1-2)Man
# Procedure, shortened: as §1
# [2] = molecular target: GlcA3S(b1-3)Gal(b1-4)GlcNAc(b1-3)Gal(b1-4)Glc
# Procedure, shortened: as §1
# [3] = molecular target: GlcNAc(a1-3)Gal(b1-4)GlcNAc
# Procedure, shortened: as §1
# [4] = molecular target: GlcNAc(a1-4)Gal(b1-3)GlcNAc
# Procedure, shortened: as §1
# [5] = molecular target: GlcNAc(a1-4)Gal(b1-4)GalNAc
# Procedure, shortened: as §1
# [6] = molecular target: GlcNAc(a1-4)Gal(b1-4)GlcNAc
# Procedure, shortened: as §1
# [7] = molecular target: GlcNAc(a1-4)Gal(b1-4)GlcNAc(b1-3)Gal(b1-4)Glc
# Procedure, shortened: as §1
# [8] = molecular target: GlcNAc(a1-4)Gal(b1-4)GlcNAc(b1-3)Gal(b1-4)GlcNAc
# Procedure, shortened: as §1
# [9] = molecular target: GlcNAc(a1-4)Gal(b1-4)GlcNAc(b1-3)Gal(b1-4)GlcNAc(b1-3)Gal(b1-4)GlcNAc
# Procedure, shortened: as §1
# [10] = molecular target: GlcNAc(a1-4)Gal(b1-4)GlcNAc(b1-3)Gal(b1-4)[Fuc(a1-3)]GlcNAc(b1-3)Gal(b1-4)[Fuc(a1-3)]GlcNAc
# Procedure, shortened: as §1
# [11] = molecular target: GlcNAc(a1-6)Gal(b1-4)GlcNAc
# Procedure, shortened: as §1
# [12] = molecular target: GlcNAc(b1-2)Gal(b1-3)GalNAc
# Procedure, shortened: as §1
# [13] = molecular target: GlcNAc(b1-2)Man(a1-3)[GlcNAc(b1-2)Man(a1-6)]Man(b1-4)GlcNAc(b1-4)GlcNAc
# Procedure, shortened: as §1
# [14] = molecular target: GlcNAc(b1-2)Man(a1-3)[GlcNAc(b1-2)Man(a1-6)]Man(b1-4)GlcNAc(b1-4)[Fuc(a1-6)]GlcNAc
# Procedure, shortened: as §1
# [15] = molecular target: GlcNAc(b1-2)Man(a1-3)[GlcNAc(b1-4)][GlcNAc(b1-2)Man(a1-6)]Man(b1-4)GlcNAc(b1-4)GlcNAc
# Procedure, shortened: as §1
# [16] = molecular target: GlcNAc(b1-2)Man(a1-3)[GlcNAc(b1-4)][GlcNAc(b1-2)Man(a1-6)]Man(b1-4)GlcNAc(b1-4)[Fuc(a1-6)]GlcNAc
# Procedure, shortened: as §1
# [17] = molecular target: GlcNAc(b1-2)[GlcNAc(b1-4)]Man(a1-3)[GlcNAc(b1-2)Man(a1-6)]Man(b1-4)GlcNAc(b1-4)GlcNAc
# Procedure, shortened: as §1
# [18] = molecular target: GlcNAc(b1-2)[GlcNAc(b1-4)]Man(a1-3)[GlcNAc(b1-4)][GlcNAc(b1-2)Man(a1-6)]Man(b1-4)GlcNAc(b1-4)GlcNAc
# Procedure, shortened: as §1
# [19] = molecular target: GlcNAc(b1-2)[GlcNAc(b1-4)]Man(a1-3)[GlcNAc(b1-4)][GlcNAc(b1-2)[GlcNAc(b1-6)]Man(a1-6)]Man(b1-4)GlcNAc(b1-4)GlcNAc
# Procedure, shortened: as §1
# [20] = molecular target: GlcNAc(b1-2)[GlcNAc(b1-4)]Man(a1-3)[GlcNAc(b1-4)][GlcNAc(b1-2)[GlcNAc(b1-6)]Man(a1-6)]Man(b1-4)GlcNAc(b1-4)[Fuc(a1-6)]GlcNAc
# Procedure, shortened: as §1
# [21] = molecular target: GlcNAc(b1-2)[GlcNAc(b1-6)]Man(a1-6)[GlcNAc(b1-2)Man(a1-3)]Man(b1-4)GlcNAc(b1-4)GlcNAc
# Procedure, shortened: as §1
# [22] = molecular target: GlcNAc(b1-2)[GlcNAc(b1-6)]Man(a1-6)[GlcNAc(b1-2)Man(a1-3)]Man(b1-4)GlcNAc(b1-4)[Fuc(a1-6)]GlcNAc
# Procedure, shortened: as §1
# [23] = molecular target: GlcNAc(b1-2)[GlcNAc(b1-6)]Man(a1-6)[GlcNAc(b1-4)][GlcNAc(b1-2)Man(a1-3)]Man(b1-4)GlcNAc(b1-4)GlcNAc
# Procedure, shortened: as §1
# GlcNAc(b1-3)Fuc = molecular target: GlcNAc(b1-3)Fuc
# Procedure, shortened: as §1
# GlcNAc(b1-3)Gal = molecular target: GlcNAc(b1-3)Gal
# Procedure, shortened: as §1
# [24] = molecular target: GlcNAc(b1-3)Gal(b1-3)GalNAc
# Procedure, shortened: as §1
# GlcNAc(b1-3)Gal(b1-4)Glc = molecular target: GlcNAc(b1-3)Gal(b1-4)Glc
# Procedure, shortened: as §1
# [25] = molecular target: GlcNAc(b1-3)Gal(b1-4)GlcNAc
# Procedure, shortened: as §1
# [26] = molecular target: GlcNAc(b1-3)Gal(b1-4)GlcNAc(b1-2)Man(a1-3)[GlcNAc(b1-3)Gal(b1-4)GlcNAc(b1-2)Man(a1-6)]Man(b1-4)GlcNAc(b1-4)GlcNAc
# Procedure, shortened: as §1
# [27] = molecular target: GlcNAc(b1-3)Gal(b1-4)GlcNAc(b1-2)Man(a1-3)[GlcNAc(b1-3)Gal(b1-4)GlcNAc(b1-2)Man(a1-6)]Man(b1-4)GlcNAc(b1-4)[Fuc(a1-6)]GlcNAc
# Procedure, shortened: as §1
# [28] = molecular target: GlcNAc(b1-3)Gal(b1-4)GlcNAc(b1-2)[GlcNAc(b1-3)Gal(b1-4)GlcNAc(b1-6)]Man(a1-6)[GlcNAc(b1-3)Gal(b1-4)GlcNAc(b1-2)Man(a1-3)]Man(b1-4)GlcNAc(b1-4)GlcNAc
# Procedure, shortened: as §1
# [29] = molecular target: GlcNAc(b1-3)Gal(b1-4)GlcNAc(b1-3)Gal(b1-4)GlcNAc
# Procedure, shortened: as §1
# [30] = molecular target: GlcNAc(b1-3)Gal(b1-4)GlcNAc(b1-3)Gal(b1-4)GlcNAc(b1-2)Man(a1-3)[GlcNAc(b1-3)Gal(b1-4)GlcNAc(b1-3)Gal(b1-4)GlcNAc(b1-2)Man(a1-6)]Man(b1-4)GlcNAc(b1-4)GlcNAc
# Procedure, shortened: as §1
binder,measurement,setting,value
"MAL-II (Maackia amurensis), P93248 (protein) ATSNSKPTQVLLATFLTFFFLLLNNVNSSDELSFTINNFVPNEADLLFQGEASVSSTGVLQLTRVENGQPQQYSVGRALYAAPVRIWDNTTGSVASFSTSFTFVVKAPNPTITSDGLAFFLAPPDSQIPSGRVSKYLGLFNNSNSDSSNQIVAVEFDTYFGHSYDPWDPNYRHIGIDVNGIESIKTVQWDWINGGVAFATITYLAPNKTLIASLVYPSNQTSFIVAASVDLKEILPEWVRVGFSAATGYPTQVETHDVLSWSFTSTLEANSDAATENNVHIARYTA",glycan array binding signal (z-score),Glc(b1-6)Glc,-0.193
same,glycan array binding signal (z-score),GlcA(b1-3)Gal,-0.219
same,glycan array binding signal (z-score),GlcA(b1-3)GlcNAc,-0.21
same,glycan array binding signal (z-score),GlcA(b1-6)Gal,-0.165
same,glycan array binding signal (z-score),[1],-0.445
same,glycan array binding signal (z-score),[2],-0.12
same,glycan array binding signal (z-score),[3],-0.239
same,glycan array binding signal (z-score),[4],-0.216
same,glycan array binding signal (z-score),[5],-0.097
same,glycan array binding signal (z-score),[6],-0.259
same,glycan array binding signal (z-score),[7],-0.228
same,glycan array binding signal (z-score),[8],-0.195
same,glycan array binding signal (z-score),[9],-0.233
same,glycan array binding signal (z-score),[10],-0.005
same,glycan array binding signal (z-score),[11],-0.225
same,glycan array binding signal (z-score),[12],-0.202
same,glycan array binding signal (z-score),[13],-0.234
same,glycan array binding signal (z-score),[14],-0.189
same,glycan array binding signal (z-score),[15],-0.141
same,glycan array binding signal (z-score),[16],-0.148
same,glycan array binding signal (z-score),[17],-0.199
same,glycan array binding signal (z-score),[18],-0.233
same,glycan array binding signal (z-score),[19],-0.186
same,glycan array binding signal (z-score),[20],-0.349
same,glycan array binding signal (z-score),[21],-0.206
same,glycan array binding signal (z-score),[22],-0.205
same,glycan array binding signal (z-score),[23],-0.297
same,glycan array binding signal (z-score),GlcNAc(b1-3)Fuc,-0.209
same,glycan array binding signal (z-score),GlcNAc(b1-3)Gal,-0.227
same,glycan array binding signal (z-score),[24],-0.201
same,glycan array binding signal (z-score),GlcNAc(b1-3)Gal(b1-4)Glc,-0.167
same,glycan array binding signal (z-score),[25],-0.194
same,glycan array binding signal (z-score),[26],0.06
same,glycan array binding signal (z-score),[27],0.484
same,glycan array binding signal (z-score),[28],0.478
same,glycan array binding signal (z-score),[29],-0.177
same,glycan array binding signal (z-score),[30],0.13

# Reference: the supplement of paper PMC8728848
